Results reported in US20260028383A1 (KINE BIOTECH, published 2026).
Like-named read-outs stand apart in the source and are kept apart here. Values belong to the binder of their own block, whether it stands above or below them.

Assays:
Experiment in all cases: cell-based or functional assay
[1] = target: T1, intermediate-affinity IL-2R (containing the β/γc-subunits of the IL-2R) expressed on HH cells (human, UniProt P14784 27-551; P31785 23-369)
T1 sequence (looked up) 1: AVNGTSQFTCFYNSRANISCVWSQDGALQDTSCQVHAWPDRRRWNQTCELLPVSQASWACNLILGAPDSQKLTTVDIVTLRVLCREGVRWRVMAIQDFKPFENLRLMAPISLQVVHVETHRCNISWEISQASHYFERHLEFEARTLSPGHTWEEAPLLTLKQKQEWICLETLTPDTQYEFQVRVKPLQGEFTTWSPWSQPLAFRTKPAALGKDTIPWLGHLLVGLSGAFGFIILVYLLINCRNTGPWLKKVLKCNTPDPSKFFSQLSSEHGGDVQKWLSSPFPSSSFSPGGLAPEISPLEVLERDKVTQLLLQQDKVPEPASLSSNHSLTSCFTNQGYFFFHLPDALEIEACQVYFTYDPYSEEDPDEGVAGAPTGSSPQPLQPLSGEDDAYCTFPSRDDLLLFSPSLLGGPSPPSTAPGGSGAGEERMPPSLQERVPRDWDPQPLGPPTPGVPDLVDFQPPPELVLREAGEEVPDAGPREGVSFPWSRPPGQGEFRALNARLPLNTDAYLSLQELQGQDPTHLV
T1 sequence (looked up) 2: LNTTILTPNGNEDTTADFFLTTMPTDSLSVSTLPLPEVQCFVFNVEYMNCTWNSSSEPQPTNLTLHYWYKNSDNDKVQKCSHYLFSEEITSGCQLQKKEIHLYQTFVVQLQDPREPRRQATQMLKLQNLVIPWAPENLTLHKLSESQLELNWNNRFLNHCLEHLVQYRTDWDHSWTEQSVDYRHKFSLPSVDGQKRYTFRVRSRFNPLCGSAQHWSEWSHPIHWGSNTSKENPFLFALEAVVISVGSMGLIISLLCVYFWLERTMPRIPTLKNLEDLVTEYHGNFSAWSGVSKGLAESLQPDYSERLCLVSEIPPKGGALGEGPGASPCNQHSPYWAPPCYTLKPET

[2] = target: T1, intermediate-affinity IL-2R (containing …); remark: listed apart in the source
[3] = target: T2, high-affinity IL-2R (containing the α/β/γc-subunits of the IL-2R) expressed on CTLL-2 cells (mouse, UniProt P01590 22-268; P16297 27-539; P34902 23-369)
T2 sequence (looked up) 1: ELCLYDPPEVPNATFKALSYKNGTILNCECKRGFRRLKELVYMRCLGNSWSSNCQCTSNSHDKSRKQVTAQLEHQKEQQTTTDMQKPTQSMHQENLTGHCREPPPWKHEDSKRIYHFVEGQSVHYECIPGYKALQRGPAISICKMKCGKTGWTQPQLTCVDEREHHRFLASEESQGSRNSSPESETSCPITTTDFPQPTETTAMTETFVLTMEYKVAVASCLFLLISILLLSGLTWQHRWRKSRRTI
T2 sequence (looked up) 2: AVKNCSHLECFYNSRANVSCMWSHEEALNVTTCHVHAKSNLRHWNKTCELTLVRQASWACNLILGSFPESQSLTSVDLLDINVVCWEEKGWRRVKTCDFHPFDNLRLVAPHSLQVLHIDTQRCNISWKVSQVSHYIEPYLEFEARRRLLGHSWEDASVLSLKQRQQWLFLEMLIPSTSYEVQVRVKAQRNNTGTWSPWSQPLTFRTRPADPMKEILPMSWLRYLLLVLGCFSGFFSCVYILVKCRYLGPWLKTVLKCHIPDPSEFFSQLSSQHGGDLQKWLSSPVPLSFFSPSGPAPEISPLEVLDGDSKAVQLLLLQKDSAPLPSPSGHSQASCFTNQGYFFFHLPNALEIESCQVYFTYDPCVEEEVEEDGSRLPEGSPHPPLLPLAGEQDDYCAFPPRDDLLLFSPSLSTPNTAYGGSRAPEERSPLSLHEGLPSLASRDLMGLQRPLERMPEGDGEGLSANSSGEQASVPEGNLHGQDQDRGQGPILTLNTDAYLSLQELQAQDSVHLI
T2 sequence (looked up) 3: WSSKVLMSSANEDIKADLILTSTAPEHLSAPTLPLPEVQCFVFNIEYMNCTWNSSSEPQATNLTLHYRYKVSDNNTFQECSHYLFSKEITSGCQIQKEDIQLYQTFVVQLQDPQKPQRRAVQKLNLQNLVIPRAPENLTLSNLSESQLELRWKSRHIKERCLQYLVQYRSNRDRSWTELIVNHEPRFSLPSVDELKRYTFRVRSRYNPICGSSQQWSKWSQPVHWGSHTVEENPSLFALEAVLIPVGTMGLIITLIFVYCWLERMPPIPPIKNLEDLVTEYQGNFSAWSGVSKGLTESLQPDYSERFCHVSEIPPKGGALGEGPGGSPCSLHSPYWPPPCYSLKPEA

[4] = target: T1, intermediate-affinity IL-2R (containing …); remark: listed apart in the source
[5] = target: T2, high-affinity IL-2R (containing the …); remark: listed apart in the source
[6] = target: T2, high-affinity IL-2R (containing the …); remark: listed apart in the source
[7] = target: T1, intermediate-affinity IL-2R (containing …); remark: listed apart in the source

EC50 of pSTAT-5 induction in HH cells (flow cytometry) [1]: 1.36 nM | EC50 (HH): pSTAT-5 induction in HH cells (flow cytometry) [2]: 2 nM | EC50 (HH/CTLL-2): EC50 on HH cells (intermediate-affinity IL-2R) divided by EC50 on CTLL-2 cells (high-affinity IL-2R) [2]: 0.027 ratio | EC50 (CTLL-2): pSTAT-5 induction in CTLL-2 cells (flow cytometry) [3]: 74.2 nM | EC50 (HH/CTLL-2): EC50 on HH cells (intermediate-affinity IL-2R) divided by EC50 on CTLL-2 cells (high-affinity IL-2R) [4]: 0.12 ratio | EC50 of pSTAT-5 induction in CTLL-2 cells (flow cytometry) [5]: 11.5 nM
B1: IL-2 variant IL-2_#7 (F42E, Y45G) (ligand)
chain: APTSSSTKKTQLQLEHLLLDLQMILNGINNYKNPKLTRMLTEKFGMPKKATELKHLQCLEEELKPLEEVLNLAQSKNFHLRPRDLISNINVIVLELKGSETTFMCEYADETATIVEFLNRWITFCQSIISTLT

EC50 of pSTAT-5 induction in CTLL-2 cells (flow cytometry) [6]: 2.91 pM | EC50 of pSTAT-5 induction in HH cells (flow cytometry) [7]: 9.93 nM
B2: IL-2 variant IL-2_#25 (A50I) (ligand)
chain: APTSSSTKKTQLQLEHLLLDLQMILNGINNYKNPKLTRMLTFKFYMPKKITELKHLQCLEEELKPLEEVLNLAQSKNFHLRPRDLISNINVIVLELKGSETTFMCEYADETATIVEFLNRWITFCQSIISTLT

EC50 of pSTAT-5 induction in HH cells (flow cytometry) [1]: 0.612 nM | EC50 (HH/CTLL-2): EC50 on HH cells (intermediate-affinity IL-2R) divided by EC50 on CTLL-2 cells (high-affinity IL-2R) [4]: 1.79 ratio | EC50 of pSTAT-5 induction in CTLL-2 cells (flow cytometry) [5]: 0.342 nM
B3: IL-2 variant IL-2_#2 (F42W, L72K) (ligand)
chain: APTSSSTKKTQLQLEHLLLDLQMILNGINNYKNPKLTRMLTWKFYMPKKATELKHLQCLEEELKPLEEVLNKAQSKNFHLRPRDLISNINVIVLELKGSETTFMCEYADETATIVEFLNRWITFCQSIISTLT
